# Assay results reported in paper PMC4336329 (PLoS ONE, 2015).
# The whole screen tested about 310,000 compounds, of which about 14,000 (4.5%) showed an effect of 50% or more. Effects have a minus sign here. The list shows a part of the results. *1 amine or outer side, *2 acyl side, *3 side chain or, on linkers, in order; H or OH if unused. Where a SMILES comes first, the peptide text is derived from it. Bridges are numbered along the chain shown (N, C = ends). [ ]: non-standard residue; d: D form. ξ: configuration not given here. hSer(Ph(2-I,4-NO2,6-CO)) = O=C([C@H](CCOc1c(I)cc([N+](=O)[O-])cc1C(=O)[*:3])N[*:1])[*:2]; ξD = NC(CC(=O)O)C(=O)O
# Target: human ether-à-go-go-related gene (hERG) potassium channel (human, UniProt Q12809)
# Sequence (Q12809 whole entry, looked up): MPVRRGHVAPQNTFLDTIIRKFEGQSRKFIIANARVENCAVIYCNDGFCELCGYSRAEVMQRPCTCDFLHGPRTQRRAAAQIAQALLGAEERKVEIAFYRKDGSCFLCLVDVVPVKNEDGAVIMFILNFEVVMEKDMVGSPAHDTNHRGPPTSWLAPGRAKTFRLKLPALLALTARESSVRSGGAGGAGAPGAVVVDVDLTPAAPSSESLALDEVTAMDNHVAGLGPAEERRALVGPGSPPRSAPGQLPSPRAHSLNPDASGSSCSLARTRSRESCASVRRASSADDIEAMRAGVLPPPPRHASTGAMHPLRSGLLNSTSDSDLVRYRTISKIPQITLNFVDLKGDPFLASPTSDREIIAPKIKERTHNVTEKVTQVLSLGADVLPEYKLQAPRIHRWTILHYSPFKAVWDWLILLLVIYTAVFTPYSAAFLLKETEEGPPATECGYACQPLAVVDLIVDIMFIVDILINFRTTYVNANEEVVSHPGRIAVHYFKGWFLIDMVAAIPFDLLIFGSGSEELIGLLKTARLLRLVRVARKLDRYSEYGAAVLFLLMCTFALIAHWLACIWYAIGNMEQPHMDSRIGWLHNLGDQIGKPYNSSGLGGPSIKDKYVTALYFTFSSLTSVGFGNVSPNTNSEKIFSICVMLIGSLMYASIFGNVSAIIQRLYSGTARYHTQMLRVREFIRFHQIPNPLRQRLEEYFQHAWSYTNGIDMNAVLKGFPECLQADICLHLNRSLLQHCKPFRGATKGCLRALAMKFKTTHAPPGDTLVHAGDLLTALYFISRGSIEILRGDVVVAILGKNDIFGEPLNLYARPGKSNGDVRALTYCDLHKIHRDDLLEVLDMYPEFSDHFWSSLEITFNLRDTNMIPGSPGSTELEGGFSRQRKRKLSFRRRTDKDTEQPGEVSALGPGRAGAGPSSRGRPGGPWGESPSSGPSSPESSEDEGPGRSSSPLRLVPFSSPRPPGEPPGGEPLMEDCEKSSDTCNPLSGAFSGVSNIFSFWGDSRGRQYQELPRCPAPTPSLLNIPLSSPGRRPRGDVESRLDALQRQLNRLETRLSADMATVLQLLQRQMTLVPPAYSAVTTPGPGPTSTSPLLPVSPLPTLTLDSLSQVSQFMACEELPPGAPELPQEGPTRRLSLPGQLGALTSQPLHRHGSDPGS
# Test: primary screen, population patch clamp on CHO cells stably expressing hERG
# 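Further: peak tail current of the secondary pulse compared with the same well before compound.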
row,SMILES,"hERG current change (%, negative = inhibition) at 10uM"
1,CCCCc1ccc(S(N)(=O)=O)cc1,15.7%
2,NC(=O)c1ccc(C(F)(F)F)n(Cc2ccc(F)c(F)c2)c1=O,39.4%
3,CC(NCc1cc(Br)ccc1OCC(=O)NCc1ccccc1)c1ccccc1.Cl (centres unmarked),-59.6%
4,O=C(NCc1ccco1)C(c1cccnc1)N(C(=O)Cn1nnc2ccccc21)c1ccccc1 (centres unmarked),0.317%
5,O=C(O)CCC(=O)N1CCN(S(=O)(=O)c2ccc3ccccc3c2)CC1,25.6%
6,O=C(CCC(=O)N1CCOc2ccc(Cl)cc21)NCCCN1CCN(Cc2ccccc2)CC1,-73.2%
7,CN1CCN(C(=O)c2cc3c(ccc4ccccc43)oc2=O)CC1,5.69%
8,COc1cccc(CNC(=O)CN2C(=O)COc3ccc(S(=O)(=O)N4CCC(C)CC4)cc32)c1,1.64%
9,O=C1c2ccccc2C(=O)N1OCc1ccccc1,11.1%
10,COc1ccc(NC(=O)Nc2cc(NC(=O)Nc3ccc(OC)cc3)c(C)nc2C)cc1,21.8%
11,CC(C)OC(=O)CSc1nnc(-c2ccncc2)n1N,18.5%
12,CCOC(=O)c1c(C)[nH]c(C)c1C(=O)CSc1nc2ccccc2c(=O)n1-c1ccc(F)cc1,-8.56%
13,O=C(NCCS(=O)(=O)NCCc1ccccc1)c1ccccc1,-14.2%
14,C(=N\N1CCN(Cc2cccc3ccccc23)CC1)/c1cccs1,-7%
15,CCn1c(=O)n(Cc2ccco2)c(=N)c2c3c(sc21)COC(C)(C)C3,-28%
16,CCC(C)(C)n1nnnc1C(c1cc2ccc(OC)cc2[nH]c1=O)N1CCc2ccccc2C1 (centres unmarked),-27.9%
17,CCN(c1ccccc1)S(=O)(=O)c1ccc(C(=O)NCC2(N(C)C)CCCCC2)cc1,-57.8%
18,C#Cc1ccc([C@@H]2C=C(C(=O)Nc3ccccc3)O[C@H](OCC)[C@H]2CCCO)cc1,-22.2%
19,Cn1c2ccccc2c2nnc(SCC(=O)NCc3ccoc3)nc21,-1.99%
20,COC(=O)c1cc(-c2c(-c3ccc4c(c3)OCO4)noc2-c2ccsc2)cc([N+](=O)[O-])c1,10.7%
21,COc1ccccc1NC(=O)N(Cc1ccccc1)c1ccccn1,17.3%
22,CN(C)c1ccc(C(=O)OCC(=O)Nc2ccc(S(N)(=O)=O)cc2)cc1,7.75%
23,COc1ccccc1NC(=O)C(=O)NNC(=O)COc1ccc2ccccc2c1,18.3%
24,CCCCCCSc1ccc([C@@H]2[C@H]3C(=O)N(C)C(=O)[C@H]3[C@]3(C(=O)OC)CCCCN23)cc1.O=C(O)C(F)(F)F,-10.9%
25,COC(=O)Cn1c(=O)c2c(nc(Br)n2CC(=O)OC)n(C)c1=O,3.72%

row,SMILES,"hERG current change (%, negative = inhibition) at 10uM"
1,O=C1CC(c2cccs2)CC(O)=C1C=NCCN1CCNCC1 (centres unmarked),-17.5%
2,C#CCOCCOCCOCCNc1nc(N2CCN(C(=O)[C@H](Cc3cc4ccccc4[nH]3)n3cc([C@@H](N)CC(C)C)nn3)CC2)nc(N2CCN(C(=O)[C@H](Cc3cc4ccccc4[nH]3)n3cc([C@@H](N)CC(C)C)nn3)CC2)n1.Cl,-7%
3,CCC(C)[C@H](NS(=O)(=O)c1ccc(C)cc1)C(=O)N1CCC(C(=O)N2CCC(C(N)=O)CC2)CC1 (some centres unmarked),18.2%
4,COc1cccc(NC(=O)C2C3C=CC4(O3)C2C(=O)N(CCCN2CCCCC2)C4C(=O)NC2CCCCC2)c1 (centres unmarked),19%
5,Br.N=c1n(N)c2ccccc2n1CC(=O)c1ccc(Br)cc1,-36.7%
6,COc1ccc(N2CC(C(=O)NCCc3ccc(Cl)cc3)CC2=O)cc1 (centres unmarked),-15.9%
7,NC(=O)/C(=C\c1cccnc1)NC(=O)c1ccccc1,14.8%
8,Cc1ccccc1C(=O)Nc1nnc(CC(=O)N/N=C/c2cn(Cc3ccccc3)c3ccccc23)s1,12.6%
9,CC(=O)Oc1ccc(-c2cc3ccccc3oc2=O)cc1,0.436%
10,CCN(CC)S(=O)(=O)c1ccc(-c2nnc(SCc3nnc(-c4ccccc4)o3)o2)cc1,7.63%
11,COc1ccc2[nH]c(C(=O)N3CCN(c4ccccc4F)CC3)c(C)c2c1,0.586%
12,COCCCNS(=O)(=O)c1ccc2c(c1)CCN2C(C)=O,13.1%
13,O=C(CNC(=O)c1ccc(Cl)cc1Cl)NCC1CCCO1 (centres unmarked),13.1%
14,"C[C@@H]1NC(=O)[C@H](CC(N)=O)NC(=O)c2cc([N+](=O)[O-])cc(I)c2OCC[C@@H](C(=O)NC(CC(=O)O)C(N)=O)NC1=O (some centres unmarked) (NA[hSer(Ph(2-I,4-NO2,6-CO))][ξD]-NH2; lactam N-3)",6.03%
15,CCOC(=O)C1CCN(C(=O)c2ccc3c(SCC(=O)O)c4c(nc3c2)CCCC4)CC1,27.1%
16,COc1ccc(CCNC(=O)COC(=O)C23CC4CC(CC(C4)C2)C3)cc1,-1.13%
17,COc1ccc(NC(=O)CS(=O)CC(=O)Nc2cccc3cccnc23)cc1 (centres unmarked),0.361%
18,CC(C)C(=O)NC(c1cccc([N+](=O)[O-])c1)c1c(O)ccc2ccccc12 (centres unmarked),18.6%
19,CSc1cccc(NS(=O)(=O)c2ccc3c(c2)NC(=O)C(C)C(=O)N3)c1 (centres unmarked),-3.61%
20,CC(=O)NC(=O)NC1CSCC1OC(C)=O (centres unmarked),15.8%
21,O=S(=O)(c1cccc2cccnc12)N1CCN(c2ccccc2)CC1,5.87%
22,CC(C)COC(=O)COc1cc(Cl)c(Cl)cc1Cl,13.5%
23,CCOC(=O)c1c(S(=O)(=O)NCC(=O)N2CCN(c3ccc(F)cc3)CC2)c(C)n(C)c1C,-45.5%
24,Cn1c(COc2ccccc2O)[n+](C)c2ccccc21.[Br-],15.8%
25,COCCN(C(=S)Nc1ccc(C)cc1C)C(C)c1cccs1 (centres unmarked),3.09%
